Test results reported in the RNAGym collection of RNA variant scans (doi:10.7554/elife.90254).
Read counts are not given, so values of variants with three or more changes are uncertain.

B1: LINE1-mini (parent)
chain: GGCAGAGCUCAACACAGCGUGGCAAAGUGGCUGUGGCUAGACUGCC

Variants of: B1
Experiment: self-cleavage, relative activity (ratio to wild type); higher = more cleavage; in vitro, sequencing; the parent is a self-cleaving ribozyme

Row | Variant | self-cleavage
1 | A12C A16U U32C G35U | 0.02
2 | A11U G22A G29U | 0.19
3 | A12C U20G C31A | 0.06
4 | A11U C31U U32C | 0.02
5 | A11U G19A G21U U43G | 0
6 | A11U G44U C45U | 0.03
7 | A11U C31U A39U C45G | 0.02
8 | A12G C13A G30A U32A | 0.02
9 | A12C A16U C23A U34G C42G U43G | 0
10 | A11U G27A U28A C45U | 0.08
11 | A11G G17U A26U C31A | 0.02
12 | A12G A16G U38A | 0.04
13 | A11U G27A G35U | 0.03
14 | A11U A16U G19A G27A C45A | 0.02
15 | A11G G29U G36U | 0.02
16 | A12C U34C U38G U43A C45U | 0
17 | A12G A14G G19C A25C G29A | 0.11
18 | A12C G21C C46U | 0
19 | A11G A12C A14C C23A G40C G44A | 0
20 | A12C G21C C23U G33U | 0.08
21 | A11U G19U G22C G27C C46A | 0.03
22 | A11G C15U G19U U20A G21U G30C | 0.01
23 | A11U A26G C46A | 0.02
24 | A11U G30U C46A | 0.09

Row | Variant | self-cleavage
25 | A11G G17U U20A A26U G29A | 0.02
26 | A11U A14C G17C G40U | 0.04
27 | A11U G17C U20C C37G | 0
28 | A11U C31G C37G | 0.01
29 | A12C A25U G36C | 0
30 | A11U G29U G30U | 0.17
31 | A12G A39G U43C | 0
32 | A11U C13A A41U C46U | 0.02
33 | A11U U28C C45G | 0
34 | A11U G22U G29A G35A | 0.03
35 | A11U G33C G35A | 0
36 | A11U C18U A25G | 0.03
37 | A12C G22A G27U U28A G40A C45A | 0.01
38 | A11G G21A G22A U34C | 0.02
39 | A11U G22U A25G G27C G29C U38G | 0
40 | A11G A16C G35U G44C | 0.01
41 | A12C C18G G40U | 0.01
42 | A12C G27U U32C G33C A41U | 0.01
43 | A11U G17U G30C G35A | 0
44 | A12C G27U C37U G44A | 0.02
45 | A11U C23A U28A | 0.07
46 | A11G U32G C37A | 0.01
47 | A12C G17U U43G | 0
48 | A11U U20C C42U | 0.06

Row | Variant | self-cleavage
49 | A12C C13A C18U G21U C23U G30A U38C C45G | 0.01
50 | A11G A16C G30A G35U G36A | 0.02
51 | A12C C37A C42G | 0.01
52 | A12C G30U C31A | 0.02
53 | A12G A16C C31A G35U C46U | 0.04
54 | A11G G27C C42A | 0.06
55 | A12C A14G G19A | 0
56 | A11U C18G G19A A26U G44A | 0.01
57 | A11G U32C C37U G40U C42U | 0.02
58 | A11U G19C U43A G44C | 0.01
59 | A11U G30U U32A | 0.01
60 | A12C A14G A16C G44A | 0.02
61 | A11U G21C G29C G36A G44C | 0.03
62 | A11G C18G A39C | 0.02
63 | A11C U38G C45A | 0.01
64 | A11U G30A U32C | 0.02
65 | A11U G22U G30A U32C | 0.02
66 | A11G A12U C37U | 0.01
67 | A12C A16G C18G G19A | 0
68 | A11U C15U G30U G35C | 0.05
69 | A12C U34A U38C | 0.03
70 | A11G G29U U38A | 0.01
71 | A11G C23A A25G G29U | 0.02
72 | A11G G17A G27U C45A | 0.04

Row | Variant | self-cleavage
73 | A11G C15U U34A | 0.03
74 | A12C G21C G33U C45G | 0.01
75 | A11G G19A A24U | 0.02
76 | A12C G36A A41G C42G G44C | 0
77 | A12C C23U U34G A39U C45A | 0
78 | A11U A14G U32C G40C | 0.01
79 | A11U G30A G35A C37A C45A | 0.02
80 | A11U A12U G30U G36U | 0
81 | A11G U34A A41G | 0.01
82 | A11G A25U C37U | 0.02
83 | A11G C15U G44A | 0.04
84 | A11U U20C A26U | 0.06
85 | A11U G17A G30A | 0
86 | A11U C13U G17A U20G | 0.01
87 | A12C G19C U28A G36A G40C C42A | 0
88 | A12G A24U C42A | 0.07
89 | A11G G22U G27A | 0.1
90 | A11G G36U C42G | 0.01
91 | A11U C15A G22A | 0.06
92 | A11U G19C A25G | 0.05
93 | A12G A26C C37U | 0.03
94 | A11G C18G C46U | 0.01
95 | A12G A25U A41G | 0.01
96 | A11G C31A A41U | 0

Row | Variant | self-cleavage
97 | A11G G19A G30U | 0.01
98 | A12C G19A G35C G44U | 0
99 | A12C U20C C45G | 0.05
100 | A11G A14C A16U G33A G35U | 0
101 | A11G G30C G40U | 0.02
102 | A12C C18G G44U | 0.02
103 | A12C A16G C42A | 0.04
104 | A11G G19C C23A | 0.02
105 | A11U C23U G36A | 0
106 | A12C C13A G17A | 0.06
107 | A11U A24G A26G | 0.51
108 | A12C G22C U28A | 0
109 | A12G A14U G35A | 0.01
110 | A12C C13G C15A G22U G30C A41G | 0.03
111 | A12C G30A U34C | 0.01
112 | A12C G33U C42U | 0.02
113 | A11U A24C G35C | 0.05
114 | A12C C31A C45A | 0.01
115 | A12C C23U U28A A39G C45A | 0.01
116 | A11G G19U C23A | 0.02
117 | A11U A12G G30C C46A | 0.06
118 | A11G A25G G35A | 0.02
119 | A11G A14U G35C G40U C46U | 0
120 | A12G A14C U34A | 0.02

Row | Variant | self-cleavage
121 | A11G G29A C31U G44A | 0.06
122 | A11G U28C C37G | 0
123 | A12C C15A G21A | 0.02
124 | A12C A14C G21U G33A | 0.03
125 | A11G G21U A24U | 0
126 | A11U A12U C15A | 0.02
127 | A11U A16U G17C A25G G36C C46G | 0.01
128 | A11G C15U G19A | 0.03
129 | A11U G29A U34C | 0.04
130 | A12C G33A U43G C45G | 0.01
131 | A11G G29C U34C G36A G40C | 0.01
132 | A11G C18A G19U C45U | 0
133 | A11U A14G U38A | 0.03
134 | A11U G35A C37U | 0.02
135 | A11U C15A U20G G40C | 0
136 | A11U A12U G22U | 0.05
137 | A12C C15G C18A A25U | 0.02
138 | A12C C13A G17C U38A C45A | 0.05
139 | A11U G17A G27C | 0.04
140 | A12C A16U G17A G22A C31G | 0.01
141 | A11U A24U G35A | 0.04
142 | A12C A14G U43A | 0.04
143 | A12C A25C C46U | 0.05
144 | A11G A12U U20A G33U A41U | 0

Row | Variant | self-cleavage
145 | A12G A26C G30U U43G C45G | 0.01
146 | A11U A16U A24U A26G G27C | 0.02
147 | A12C A39U G44A | 0.04
148 | A11G G19C G27A A39C | 0
149 | A11G C23G G33A | 0.01
150 | A11G G21U G30C | 0.04
151 | A12C G17A U43C | 0
152 | A12C U20C G29A | 0.03
153 | A12C C13A U32C G36U | 0.04
154 | A11U A26C G36U C37U U43A | 0
155 | A12C A26G G35A | 0.02
156 | A11U C15A C23A U43G | 0.01
157 | A11U G22C A25C | 0.04
158 | A12C A16G U20G G21U U28G | 0.01
159 | A12G A25G U28A | 0.05
160 | A11G A24U G35U | 0.01
161 | A12G C13A G30U | 0
162 | A12C A25C U32G C46U | 0.01
163 | A11U G17U G29U U32C | 0.04
164 | A11G G35U C42U | 0.06
165 | A12C G17U U20C G22A G36A | 0.02
166 | A12C U20A G30A C31G | 0
167 | A11G G29A G30U A39G A41C | 0.01
